Substitutions are numbered along the chain they refer to; changes in the protein carry UniProt numbers. The list shows a part of the results.
T1: RBFOX1 RRM RbFoxmut (Fox-RRM*) (Homo sapiens, UniProt Q9NWB1 109-208, R118D;E147R;N151S;E152T)
T1 sequence: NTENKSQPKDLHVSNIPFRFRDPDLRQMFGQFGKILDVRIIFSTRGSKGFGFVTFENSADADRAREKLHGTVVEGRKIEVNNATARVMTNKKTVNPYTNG

B1: UAGGCGA (DNA:RNA)
RNA: GGGAGACCGGAAUUCAGAUUGUCCUAGGCGAUUAAAUCCCGUCGUAGCCACCA
DNA 1: CAATCTGAATTCCGGTCTCCC
DNA 2: TGGTGGCTACGACGGGATT
B2: UGAAUAC (DNA:RNA)
RNA: B1 RNA with A26G, G27A, G28A, C29U, G30A, A31C
DNA 1: CAATCTGAATTCCGGTCTCCC
DNA 2: TGGTGGCTACGACGGGATT
B3: CGCUAGC (DNA:RNA)
RNA: B1 RNA with U25C, A26G, G27C, G28U, C29A, A31C
DNA 1: CAATCTGAATTCCGGTCTCCC
DNA 2: TGGTGGCTACGACGGGATT
B4: GGUAGCC (DNA:RNA)
RNA: GGGAGACCGGAAUUCAGAUUGUCCGGUAGCCUUAAAUCCCGUCGUAGCCACCA
DNA 1: CAATCTGAATTCCGGTCTCCC
DNA 2: TGGTGGCTACGACGGGATT
B5: AAAACUC (DNA:RNA)
RNA: B4 RNA with G25A, G26A, U27A, G29C, C30U
DNA 1: CAATCTGAATTCCGGTCTCCC
DNA 2: TGGTGGCTACGACGGGATT
B6: GACUAGA (DNA:RNA)
RNA: B1 RNA with U25G, G27C, G28U, C29A
DNA 1: CAATCTGAATTCCGGTCTCCC
DNA 2: TGGTGGCTACGACGGGATT
B7: CCAGGAA (DNA:RNA)
RNA: B1 RNA with U25C, A26C, G27A, C29G, G30A
DNA 1: CAATCTGAATTCCGGTCTCCC
DNA 2: TGGTGGCTACGACGGGATT
B8: CACCCCG (DNA:RNA)
RNA: B1 RNA with U25C, G27C, G28C, G30C, A31G
DNA 1: CAATCTGAATTCCGGTCTCCC
DNA 2: TGGTGGCTACGACGGGATT
B9: CUGCCAA (DNA:RNA)
RNA: B1 RNA with U25C, A26U, G28C, G30A
DNA 1: CAATCTGAATTCCGGTCTCCC
DNA 2: TGGTGGCTACGACGGGATT
B10: GCUGUUA (DNA:RNA)
RNA: B4 RNA with G26C, A28G, G29U, C30U, C31A
DNA 1: CAATCTGAATTCCGGTCTCCC
DNA 2: TGGTGGCTACGACGGGATT
B11: GGCUAUC (DNA:RNA)
RNA: B4 RNA with U27C, A28U, G29A, C30U
DNA 1: CAATCTGAATTCCGGTCTCCC
DNA 2: TGGTGGCTACGACGGGATT
B12: AAAUUGU (DNA:RNA)
RNA: B1 RNA with U25A, G27A, G28U, C29U, A31U
DNA 1: CAATCTGAATTCCGGTCTCCC
DNA 2: TGGTGGCTACGACGGGATT
B13: UCGUACU (DNA:RNA)
RNA: B1 RNA with A26C, G28U, C29A, G30C, A31U
DNA 1: CAATCTGAATTCCGGTCTCCC
DNA 2: TGGTGGCTACGACGGGATT
B14: ACAGCUU (DNA:RNA)
RNA: B1 RNA with U25A, A26C, G27A, G30U, A31U
DNA 1: CAATCTGAATTCCGGTCTCCC
DNA 2: TGGTGGCTACGACGGGATT
B15: AUACGGC (DNA:RNA)
RNA: B4 RNA with G25A, G26U, U27A, A28C, C30G
DNA 1: CAATCTGAATTCCGGTCTCCC
DNA 2: TGGTGGCTACGACGGGATT
B16: GGGUCCG (DNA:RNA)
RNA: B4 RNA with U27G, A28U, G29C, C31G
DNA 1: CAATCTGAATTCCGGTCTCCC
DNA 2: TGGTGGCTACGACGGGATT
B17: UACCUAA (DNA:RNA)
RNA: B1 RNA with G27C, G28C, C29U, G30A
DNA 1: CAATCTGAATTCCGGTCTCCC
DNA 2: TGGTGGCTACGACGGGATT
B18: GCGCUAG (DNA:RNA)
RNA: B4 RNA with G26C, U27G, A28C, G29U, C30A, C31G
DNA 1: CAATCTGAATTCCGGTCTCCC
DNA 2: TGGTGGCTACGACGGGATT
B19: AUCGCUC (DNA:RNA)
RNA: B1 RNA with U25A, A26U, G27C, G30U, A31C
DNA 1: CAATCTGAATTCCGGTCTCCC
DNA 2: TGGTGGCTACGACGGGATT
B20: CUUGGGG (DNA:RNA)
RNA: B4 RNA with G25C, G26U, A28G, C30G, C31G
DNA 1: CAATCTGAATTCCGGTCTCCC
DNA 2: TGGTGGCTACGACGGGATT
B21: CCCCAAG (DNA:RNA)
RNA: GGGAGACCGGAAUUCAGAUUGUCCCCCCAAGUUAAAUCCCGUCGUAGCCACCA
DNA 1: CAATCTGAATTCCGGTCTCCC
DNA 2: TGGTGGCTACGACGGGATT
B22: UUGGAUC (DNA:RNA)
RNA: B1 RNA with A26U, C29A, G30U, A31C
DNA 1: CAATCTGAATTCCGGTCTCCC
DNA 2: TGGTGGCTACGACGGGATT
B23: AGGACCU (DNA:RNA)
RNA: B4 RNA with G25A, U27G, G29C, C31U
DNA 1: CAATCTGAATTCCGGTCTCCC
DNA 2: TGGTGGCTACGACGGGATT
B24: UUGCAAG (DNA:RNA)
RNA: B21 RNA with C25U, C26U, C27G
DNA 1: CAATCTGAATTCCGGTCTCCC
DNA 2: TGGTGGCTACGACGGGATT
B25: CCGAGGA (DNA:RNA)
RNA: B1 RNA with U25C, A26C, G28A, C29G
DNA 1: CAATCTGAATTCCGGTCTCCC
DNA 2: TGGTGGCTACGACGGGATT
B26: UAUCCAG (DNA:RNA)
RNA: B21 RNA with C25U, C26A, C27U, A29C
DNA 1: CAATCTGAATTCCGGTCTCCC
DNA 2: TGGTGGCTACGACGGGATT
B27: GUUUCCG (DNA:RNA)
RNA: B4 RNA with G26U, A28U, G29C, C31G
DNA 1: CAATCTGAATTCCGGTCTCCC
DNA 2: TGGTGGCTACGACGGGATT
B28: UAUAGGU (DNA:RNA)
RNA: B4 RNA with G25U, G26A, C30G, C31U
DNA 1: CAATCTGAATTCCGGTCTCCC
DNA 2: TGGTGGCTACGACGGGATT
B29: ACAAUGU (DNA:RNA)
RNA: B21 RNA with C25A, C27A, C28A, A29U, A30G, G31U
DNA 1: CAATCTGAATTCCGGTCTCCC
DNA 2: TGGTGGCTACGACGGGATT
B30: CCAUGCG (DNA:RNA)
RNA: B21 RNA with C27A, C28U, A29G, A30C
DNA 1: CAATCTGAATTCCGGTCTCCC
DNA 2: TGGTGGCTACGACGGGATT
B31: GCAUUGU (DNA:RNA)
RNA: B21 RNA with C25G, C27A, C28U, A29U, A30G, G31U
DNA 1: CAATCTGAATTCCGGTCTCCC
DNA 2: TGGTGGCTACGACGGGATT

Each binder was assayed against T1, RBFOX1 RRM RbFoxmut (Fox-RRM*) (assay: EMSA; HiTS-Eq, 1 nM pool, 10 min; buffer printed only for the single-RNA assays: 10 mM Tris pH 7.5, 150 mM NaCl, 3.4 mM EDTA, 0.001% NP-40, 30 C). Settings: tags: His6 N-terminal (pET28a); label: 5' 32P.
Procedure, shortened: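 Purified RbFox RRM, wild type or mutant, was incubated for 10 min in 50 µL with 1 nM of a 5′-radiolabelled RNA pool carrying 7 randomized nucleotides, whose flanks were annealed to DNA oligonucleotides, over a series of increasing protein concentrations. Unbound RNA was resolved on 8% native PAGE, cut out, reverse-transcribed, barcoded by PCR and sequenced on an Illumina HiSeq 2500. Relative association constants were derived from changes in read counts for each RNA species versus the control reaction and normalised to the cognate motif.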

In order of rising binding signal:
1. B5  0.0296 KA relative to UGCAUGU
2. B1  0.0581 KA relative to UGCAUGU
3. B9  0.0589 KA relative to UGCAUGU
4. B25  0.0623 KA relative to UGCAUGU
5. B19  0.0696 KA relative to UGCAUGU
6. B23  0.0785 KA relative to UGCAUGU
7. B8  0.0813 KA relative to UGCAUGU
8. B2  0.0848 KA relative to UGCAUGU
9. B20  0.0861 KA relative to UGCAUGU
10. B29  0.0881 KA relative to UGCAUGU
11. B17  0.0888 KA relative to UGCAUGU
12. B13  0.0912 KA relative to UGCAUGU
13. B12  0.0978 KA relative to UGCAUGU
14. B26  0.0998 KA relative to UGCAUGU
15. B7  0.1 KA relative to UGCAUGU
16. B24  0.103 KA relative to UGCAUGU
17. B15  0.107 KA relative to UGCAUGU
18. B18  0.11 KA relative to UGCAUGU
19. B14  0.112 KA relative to UGCAUGU
20. B21  0.115 KA relative to UGCAUGU
21. B3  0.116 KA relative to UGCAUGU
22. B4  0.116 KA relative to UGCAUGU
23. B27  0.118 KA relative to UGCAUGU
24. B28  0.12 KA relative to UGCAUGU
25. B6  0.123 KA relative to UGCAUGU
26. B30  0.143 KA relative to UGCAUGU
27. B10  0.144 KA relative to UGCAUGU
28. B11  0.226 KA relative to UGCAUGU
29. B31  0.228 KA relative to UGCAUGU
30. B16  0.238 KA relative to UGCAUGU
31. B22  0.321 KA relative to UGCAUGU

Source: PMC9911399, “Two distinct binding modes provide the RNA-binding protein RbFox with extraordinary sequence specificity”
